Assay: soluble on expression in E. coli; label from the status in PepcDB or PDB records

## MKISVITVTYNNAEGLEKTLSSLSILKIKPFEIIIVDGGSTDGTNRVISRFTSMNITHVYEKDEGIYDAMNKGRMLAKGDLIHYLNAGDSVIGDIYKNIKEPCLIKVGLFENDKLLGFSSITHSNTGYCHQGVIFPKNHSEYDLRYKICADYKLIQEVFPEGLRSLSLITSGYVKYDMGGVSSKKRILRDKELAKIMFEKNKKNLIKFIPISIIKILFPERLRRVLRKMQYICLTLFFMKNSSPYDNE
  soluble on expression in E. coli: not soluble

Source: the DeepSol protein solubility set
